In paper PMC4872745:
No constants are given. Whether binding was seen depends on the method and setting. For part of these data: Binding seen in cells or lysates may run through a third protein. Some results given as binding are weak or reduced against the parent protein; the word gives no strength. Each block holds one molecule with its values, some of them ahead of it.

Tests used:
[1] = target: T1, Fra-1 (human (endogenous in SH-SY5Y)) (UniProt P15407); assay: co-IP; lysates of SK-N-SH, SK-N-BE(2) and KP-N-NS cells (Supplementary Data S2; Figure 2)
T1 sequence: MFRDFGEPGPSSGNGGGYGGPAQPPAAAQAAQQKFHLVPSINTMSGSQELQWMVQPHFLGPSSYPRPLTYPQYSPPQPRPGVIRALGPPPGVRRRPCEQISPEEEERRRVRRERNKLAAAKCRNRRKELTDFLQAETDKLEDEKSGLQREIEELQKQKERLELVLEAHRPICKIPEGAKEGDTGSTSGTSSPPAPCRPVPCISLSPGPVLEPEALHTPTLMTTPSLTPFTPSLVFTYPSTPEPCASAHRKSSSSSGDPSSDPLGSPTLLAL

[2] = target: T2, JunD (human (endogenous in SH-SY5Y)) (UniProt P17535); assay: co-IP; SH-SY5Y cell extracts immunoprecipitated with 2 ug antibody against c-Fos, FosB, Fra-1, Fra2, c-Jun, JunB, JunD, ATF2 or normal IgG, agarose beads with protein A plus G; WB with c-Jun or Fra-1 monoclonal antibody
T2 sequence: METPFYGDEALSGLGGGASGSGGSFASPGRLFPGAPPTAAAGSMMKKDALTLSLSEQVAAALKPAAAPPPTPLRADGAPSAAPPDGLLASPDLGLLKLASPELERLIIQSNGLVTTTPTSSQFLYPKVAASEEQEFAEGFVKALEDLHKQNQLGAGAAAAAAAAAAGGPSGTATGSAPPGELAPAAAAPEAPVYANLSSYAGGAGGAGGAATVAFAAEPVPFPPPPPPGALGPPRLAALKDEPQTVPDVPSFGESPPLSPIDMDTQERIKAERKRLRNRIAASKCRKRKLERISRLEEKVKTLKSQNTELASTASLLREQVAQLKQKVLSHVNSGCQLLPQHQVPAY

[3] = target: T1, Fra-1 (human (endogenous in SH-SY5Y)); assay: as above
[4] = target: T1, Fra-1 (human (endogenous in SH-SY5Y)); assay: native gel or EMSA; 32P-labelled AP-1 (TRE) probe with nuclear extracts of SH-SY5Y; 1 ug c-Jun or Fra-1 antibody preincubated with the extract at 4 C for one hour; 4% polyacrylamide gel
[5] = target: c-Jun (human (endogenous in SH-SY5Y)) (UniProt P05412); assay: co-IP; SH-SY5Y cell extracts immunoprecipitated with 2 ug antibody against c-Fos, FosB, Fra-1, Fra2, c-Jun, JunB, JunD, ATF2 or normal IgG, agarose beads with protein A plus G; WB with c-Jun or Fra-1 monoclonal antibody
[6] = target: T3, ATF2 (human (endogenous in SH-SY5Y)) (UniProt P15336); assay: as above
T3 sequence: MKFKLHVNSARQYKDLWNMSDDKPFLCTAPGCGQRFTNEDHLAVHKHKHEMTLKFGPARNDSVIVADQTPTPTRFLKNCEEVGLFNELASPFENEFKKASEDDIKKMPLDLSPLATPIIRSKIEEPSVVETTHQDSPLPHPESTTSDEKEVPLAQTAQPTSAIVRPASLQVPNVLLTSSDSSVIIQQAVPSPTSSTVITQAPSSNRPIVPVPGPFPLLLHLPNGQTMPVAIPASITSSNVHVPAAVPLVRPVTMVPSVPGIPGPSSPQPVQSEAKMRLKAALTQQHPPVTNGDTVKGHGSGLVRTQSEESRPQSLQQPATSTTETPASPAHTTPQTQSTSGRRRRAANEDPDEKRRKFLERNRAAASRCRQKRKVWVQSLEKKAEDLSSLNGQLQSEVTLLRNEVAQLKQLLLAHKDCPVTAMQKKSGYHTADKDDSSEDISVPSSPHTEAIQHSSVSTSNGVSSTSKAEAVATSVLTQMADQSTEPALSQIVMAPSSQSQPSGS

[7] = target: T4, Fra2 (human (endogenous in SH-SY5Y)) (UniProt P15408); assay: as above
T4 sequence: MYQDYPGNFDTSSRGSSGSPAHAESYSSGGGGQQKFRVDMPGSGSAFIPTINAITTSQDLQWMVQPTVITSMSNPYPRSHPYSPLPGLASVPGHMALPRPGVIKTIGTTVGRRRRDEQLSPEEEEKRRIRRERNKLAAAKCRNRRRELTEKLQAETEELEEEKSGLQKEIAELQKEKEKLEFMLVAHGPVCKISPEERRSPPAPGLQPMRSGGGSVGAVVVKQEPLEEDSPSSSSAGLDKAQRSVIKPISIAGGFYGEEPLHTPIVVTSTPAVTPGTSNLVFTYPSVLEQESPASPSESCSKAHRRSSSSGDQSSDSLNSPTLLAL

[8] = target: T5, FosB (human (endogenous in SH-SY5Y)) (UniProt P53539); assay: as above
T5 sequence: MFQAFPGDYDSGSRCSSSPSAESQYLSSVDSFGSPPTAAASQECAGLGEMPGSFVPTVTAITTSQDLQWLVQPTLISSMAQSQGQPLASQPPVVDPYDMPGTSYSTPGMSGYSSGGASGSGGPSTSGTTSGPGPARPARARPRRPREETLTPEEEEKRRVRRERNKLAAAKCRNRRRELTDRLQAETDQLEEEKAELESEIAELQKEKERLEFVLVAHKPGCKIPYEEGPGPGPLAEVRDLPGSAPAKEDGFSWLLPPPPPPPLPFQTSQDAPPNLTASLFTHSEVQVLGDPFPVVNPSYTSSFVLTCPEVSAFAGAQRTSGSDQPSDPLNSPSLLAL

[9] = target: T6, JunD (human (endogenous in SH-SY5Y)), P17535; assay: as above; conditions: remark: other sources report otherwise
T6 chain: T2 sequence

[10] = target: T7, c-Fos (human (endogenous in SH-SY5Y)), P01100; assay: as above; conditions: remark: other sources report otherwise
T7 chain: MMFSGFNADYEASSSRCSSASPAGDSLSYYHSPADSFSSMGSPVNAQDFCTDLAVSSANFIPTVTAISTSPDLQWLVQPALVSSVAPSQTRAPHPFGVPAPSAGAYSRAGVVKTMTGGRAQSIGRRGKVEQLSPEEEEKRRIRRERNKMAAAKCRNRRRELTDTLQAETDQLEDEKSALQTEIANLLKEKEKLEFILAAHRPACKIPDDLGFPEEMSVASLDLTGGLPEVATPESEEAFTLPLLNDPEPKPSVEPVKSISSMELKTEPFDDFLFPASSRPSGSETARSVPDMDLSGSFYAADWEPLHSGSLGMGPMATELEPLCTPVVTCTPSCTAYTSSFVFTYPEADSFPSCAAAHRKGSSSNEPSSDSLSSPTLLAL

[11] = target: T8, JunB (human (endogenous in SH-SY5Y)), P17275; assay: as above; conditions: remark: other sources report otherwise
T8 chain: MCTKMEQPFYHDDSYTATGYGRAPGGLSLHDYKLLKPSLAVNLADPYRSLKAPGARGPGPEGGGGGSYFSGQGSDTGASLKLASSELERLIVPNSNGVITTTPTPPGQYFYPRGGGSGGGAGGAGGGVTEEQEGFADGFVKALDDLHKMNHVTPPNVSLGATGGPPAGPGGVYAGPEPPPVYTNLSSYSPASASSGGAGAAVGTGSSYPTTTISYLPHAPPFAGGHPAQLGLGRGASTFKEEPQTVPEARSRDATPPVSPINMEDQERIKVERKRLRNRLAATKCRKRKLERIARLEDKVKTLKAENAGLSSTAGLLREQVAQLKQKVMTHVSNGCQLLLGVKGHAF

[12] = target: T9, FosB (human (endogenous in SH-SY5Y)), P53539; assay: as above; conditions: remark: other sources report otherwise
T9 chain: T5 sequence

[13] = target: T10, Fra2 (human (endogenous in SH-SY5Y)), P15408; assay: as above; conditions: remark: other sources report otherwise
T10 chain: T4 sequence

[14] = target: T11, ATF2 (human (endogenous in SH-SY5Y)), P15336; assay: as above; conditions: remark: other sources report otherwise
T11 chain: T3 sequence

binding [1]: binds
binding [2]: no binding
binding [3]: binds
binding [4]: binds
Molecule: c-Jun (from UniProt P05412 1-331)

binding [5]: binds
binding [6]: no binding
binding [7]: no binding
binding [8]: no binding
B1: Fra-1 (protein, UniProt P15407 1-271)
chain: T1 sequence

binding [9]: no binding
binding [10]: no binding
binding [11]: no binding
B2: Fra-1, P15407 1-271 (protein)
chain: T1 sequence

binding [12]: no binding
binding [11]: no binding
binding [13]: no binding
binding [14]: no binding
B3: c-Jun, P05412 1-331 (protein)
chain: MTAKMETTFYDDALNASFLPSESGPYGYSNPKILKQSMTLNLADPVGSLKPHLRAKNSDLLTSPDVGLLKLASPELERLIIQSSNGHITTTPTPTQFLCPKNVTDEQEGFAEGFVRALAELHSQNTLPSVTSAAQPVNGAGMVAPAVASVAGGSGSGGFSASLHSEPPVYANLSNFNPGALSSGGGAPSYGAAGLAFPAQPQQQQQPPHHLPQQMPVQHPRLQALKEEPQTVPEMPGETPPLSPIDMESQERIKAERKRMRNRIAASKCRKRKLERIARLEEKVKTLKAQNSELASTANMLREQVAQLKQKVMNHVNSGCQLMLTQQLQTF
